Experimental data reported in PubChem BioAssay AID1159614 (National Center for Advancing Translational Sciences (NCATS), 2016).
About 65 (0.1%) of roughly 45,000 compounds were called active. The call rests on the fitted dose curve; in most records, active means well fitted activation curve with a large enough effect; inconclusive means small, poorly fitted or top-dose-only effect; inactive means no such curve, though single readings can be large or run the other way. Some of the results follow.

The compounds below were run against Galactocerebrosidase (Homo sapiens) (UniProt P54803) (assay: A Novel Cell-Based Assay to Identify Small Molecules for B -Galactocerebrosidase). Conditions: 145M-Twi-hGALC-G270D cells (Twitcher mouse brain line with human GALC G270D), HMU-beta-Gal fluorescence, 48 h; series mostly up to 57.5 µM; activation: at the top concentration.
Chain of UniProt P54803 (P54803 whole entry, looked up): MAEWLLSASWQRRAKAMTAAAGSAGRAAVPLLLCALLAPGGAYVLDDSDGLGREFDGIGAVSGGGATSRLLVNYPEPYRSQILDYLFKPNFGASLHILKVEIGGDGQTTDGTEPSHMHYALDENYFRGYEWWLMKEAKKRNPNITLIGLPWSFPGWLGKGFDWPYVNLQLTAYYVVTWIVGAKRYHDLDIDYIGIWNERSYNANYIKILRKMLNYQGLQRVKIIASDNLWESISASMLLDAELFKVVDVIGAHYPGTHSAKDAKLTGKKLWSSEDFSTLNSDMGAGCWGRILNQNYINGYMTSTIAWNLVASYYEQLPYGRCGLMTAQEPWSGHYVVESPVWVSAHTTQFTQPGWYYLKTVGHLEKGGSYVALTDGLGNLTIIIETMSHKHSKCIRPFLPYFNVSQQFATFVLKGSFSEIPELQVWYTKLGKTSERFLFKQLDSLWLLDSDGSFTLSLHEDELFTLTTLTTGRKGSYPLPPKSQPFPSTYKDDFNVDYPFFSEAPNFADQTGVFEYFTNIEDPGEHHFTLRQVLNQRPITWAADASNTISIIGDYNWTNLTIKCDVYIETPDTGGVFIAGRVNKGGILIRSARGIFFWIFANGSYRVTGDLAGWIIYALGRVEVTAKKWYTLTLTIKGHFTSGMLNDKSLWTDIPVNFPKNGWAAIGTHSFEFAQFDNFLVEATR
Outline: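 Live 145M-Twi cells (Twitcher mouse brain-derived, GALC-null) stably expressing human GALC-G270D, with a wild-type GALC line, were compound-treated. Residual GALC activity was then read as fluorescence from 0.1 mM final HMU-β-gal at pH 5.2; higher signal means activation.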
Further: 0% is about no effect; nearly all actives have a fitted effect of over 65% in size.

activation, inactive:
O=C(C1CCCN(S(=O)(=O)c2cccc3nonc23)C1)N1CCN(c2cccc(C(F)(F)F)c2)CC1 (centres undefined) -35%
CC(=O)c1ccc(NC(=O)CSc2nc(-c3ccccc3C)nc3c2c(=O)n(C)c(=O)n3C)cc1 -28%
CCOC(=O)c1c(C)oc2nc(C)nc(N(C)Cc3ccccc3)c12 -11%
Cc1nc2c(-c3ccccc3)c(C)nn2c(C)c1CCC(=O)NCCc1ccccc1 -31.7%
CC(C)c1ccc(NC(=O)N2CCN(c3ccc(Cl)c(Cl)c3)CC2)cc1 -9.38%
CCOc1ccc(NC(=O)CSc2nc3c([nH]c4ccccc43)c(=O)n2-c2cc(C)cc(C)c2)cc1 -21.9%
O=C(COc1cccc(Cl)c1)N1CCC(c2nc3ccccc3o2)CC1 -18.3%
Cc1cccc(N2CCN(C(=O)c3cnc4c(C)cccn4c3=O)CC2C)c1 (centres undefined) -1.61%
O=C(NCc1ccccc1Cl)C1CCCN(C(=O)c2cnn(-c3ccc(F)cc3)c2-n2cccc2)C1 (centres undefined) -27.9%
COc1ccc(NC(=O)CSc2nc3c(oc4ccccc43)c(=O)n2-c2ccccc2)cc1OC -9.69%
CCC(C)NC(=O)c1ccc2c(c1)nc1n2CCCCC1 (centres undefined) -18.9%
CCOC(=O)c1c(C)oc2c1cc(NS(=O)(=O)c1ccc(C)cc1)c1ccccc12 -6.54%
O=C(NC1CC(=O)N(c2ccc(Cl)cc2)C1)C1CCCC1 (centres undefined) 1.05%
Cc1ccc(N2CCN(C(=O)c3c(C)oc4ncnc(N5CCCCC5)c34)CC2)c(C)c1 -33.4%
CCOc1ccccc1NC(=O)c1cc(S(=O)(=O)N2CCOCC2)cn1C -0.889%
O=C(CSc1nc(-c2ccccc2)no1)N1CCN(c2ccccc2)CC1 -8.53%
O=C1Nc2cc(Cl)ccc2Oc2ccccc21 -12.5%
CN1CCN(C(=O)c2ccc3c(c2)N(Cc2ccc(F)cc2)C(=O)c2ccccc2S3=O)CC1 (centres undefined) -6.28%
CCC(=O)N1c2ccccc2C(C)(c2ccccc2)CC1(C)C (centres undefined) -8.84%
COc1ccc(CCNc2oc(COc3cccc(C)c3)nc2C#N)cc1OC -4.84%
Cc1sc2c(c1C)c(=O)n(Cc1ccccc1)c(=O)n2CC(=O)N(C)c1ccccc1 -13.5%
CCCNC(=O)c1cnn2c(C(F)F)cc(-c3ccccc3)nc12 -8.76%
CC(C)Oc1ccc(NC(=O)c2cc3ccccc3o2)cc1 4.3%
CC1(C)CC(=O)c2cc(-c3nc(-c4ccc(Cl)cc4)cs3)c(=O)[nH]c2C1 -14.1%
CCN1CCc2c(sc(-n3cccc3)c2C(C)NC(=O)Nc2cc(Cl)c(OC)cc2OC)C1 (centres undefined) -15.8%
Cc1ccc(NC(=O)c2cc(S(=O)(=O)N3CCCCCC3)ccc2F)cc1F -16.3%
CC(=O)c1cccc(NC(=O)CCc2nc3cccnc3n2Cc2cccs2)c1 -22.9%
CC1=C(/C=C/C(C)=C/C=C/C(C)=C/C(=O)Nc2ccc(O)cc2)C(C)(C)CCC1 -6.59%
CC(=O)N1CCc2cc(Br)cc(S(=O)(=O)NCCc3ccc(Cl)cc3)c21 -7.01%
COc1ccc(-c2nc(Cn3c(=O)cc(-c4ccccc4)c4c(C)nn(C)c43)c(C)o2)cc1OC -8.97%
CC1CCN(S(=O)(=O)c2ccc3c(ccc(=O)n3CC(=O)NCc3ccc(Cl)cc3)c2)CC1 -20%
CCOc1ccc(Nc2nc3c(S(=O)(=O)c4ccc(CC)cc4)nnn3c3ccc(Cl)cc23)cc1 -20.8%
CCNc1nc(NC(C)(C)C)nc(Oc2ccc(=O)n(-c3ccccc3)n2)n1 1.82%
CCc1ccccc1N1CC(c2nc3ccccc3n2CCOc2ccc(Cl)c(C)c2)CC1=O (centres undefined) 9.68%
COc1ccc(Cl)cc1N=C1NC(=O)CC(C(=O)Nc2ccccc2C(F)(F)F)S1 (centres undefined) -40.7%
COc1ccc(S(=O)(=O)N(CC(=O)Nc2cc(C)cc(C)c2)c2ccc(Cl)cc2)cc1 17.2%
CCn1c(C(=O)N2CCC(C(=O)N3CCN(c4ccc(OC)cc4)CC3)CC2)cc2sccc21 -9.37%
CN(C)c1ccc(C(=O)Nc2c(C(=O)NC(C)(C)C)oc3ccccc23)cc1 -24.3%
Cc1cc(C)cc(NC(=O)C(CC(C)C)NC(=O)C2CCCCC2)c1 (centres undefined) -9.26%
CC(C)Oc1ccc(CNC(=O)c2ccc3nc(C(C)C)oc3c2)cc1 3.04%
COc1ccc(CCNc2nc3ccc(C)cc3n3cnnc23)cc1OC -8.38%
O=C(c1cccn1-c1nnc(N2CCCCC2)s1)N1CCN(c2ccc(Cl)cc2)CC1 -18.5%
CCOC(=O)CSc1nc(-c2ccc(F)cc2)cc(C(F)(F)F)c1C#N -9.39%
CC(C)(C)C1CCc2c(sc(NC(=O)c3ccccc3F)c2C(=O)NCc2ccco2)C1 (centres undefined) -15%
Cc1cc(C)cc(C(=O)Nc2cccc(-c3nc4ncccc4o3)c2C)c1 -3.4%
COc1ccccc1CNC(=O)CCCCn1c(=O)c2ccccc2n(Cc2ccccc2C)c1=O 0.182%
CC(=O)c1cccc(NC(=O)c2ccc(Cl)c(S(=O)(=O)N3CCOCC3)c2)c1 -7.61%
CC(=O)c1c(C)n(-c2ccc(Cl)cc2)c2ccc(OC(=O)COc3ccccc3)cc12 -19.9%
NC(=O)c1ncn([C@@H]2O[C@H](CO)[C@@H](O)[C@H]2O)c1N -4.43%
COc1ccc(-c2nc3scc(CCNS(=O)(=O)c4c(C)cc(C)cc4C)n3n2)cc1OC -15.1%
O=C(NCCn1cc(SCc2ccccc2)c2ccccc21)c1cccs1 11%
CCc1nn2c(=O)cc(COC(=O)c3ccc4c(c3)OCO4)nc2s1 -2.58%
CN(Cc1ccccc1)S(=O)(=O)c1nnc(NC(=O)c2ccccc2Cl)s1 -10.1%
c1ccc(N2CCN(Cc3nnc(-c4ccc5c(c4)OCO5)o3)CC2)cc1 -25.4%
CCOC(=O)c1cc2c(=O)n3ccccc3nc2n(CCOC)c1=NC(=O)c1cc2ccccc2o1 -14%
COc1ccc(C2=NS(=O)(=O)N(C)C(C(=O)Nc3ccc(OC(F)(F)F)cc3)=C2)cc1 -8.78%
CCOC(=O)c1noc2nc(C)n(Cc3cccc(C#N)c3)c(=O)c12 -28.5%
COc1ccc(CCNC(=O)c2ccc3c(c2)nc2n3CCC(C)C2)cc1OC (centres undefined) -25.1%
CC(=O)c1ccc(NC(=O)C2CCC(CNS(=O)(=O)c3cccs3)CC2)cc1 (centres undefined) -11.5%
Cc1cccc(NC(=O)Cn2c(=O)ccc3cc(S(=O)(=O)N4CCCC4)ccc32)c1C -5.99%
COc1cccc(Cc2nc3ccccc3nc2SCC(=O)NCc2ccc(C)cc2)c1 2.27%
Cc1c(NC(=O)c2cc(-c3ccc(Cl)cc3)on2)c(=O)n(-c2ccccc2)n1C 3.53%
CCOC(=O)c1[nH]c(C)c(CCC(=O)NCc2ccc(OC)cc2)c1C -15.4%
COc1ccc(N2C(=O)CS(=O)(=O)C23C(=O)N(Cc2ccc(C)cc2)c2ccccc23)cc1Cl (centres undefined) -23%
O=C(NCc1ccc(F)cc1)c1ccc2c(c1)nnn2C1CCCC1 -16.4%
CCOc1ccc(NC(=O)N2CCN(Cc3cc(=O)n4nc(-c5ccc(OC)cc5)sc4n3)CC2)cc1 -7.15%
CCNC(=O)c1ccc(CSc2nc3ccncc3n2Cc2ccc(F)cc2)cc1 -26.5%
Cc1ccccc1-c1nnc(SCC(=O)N(C)C2CCCCC2)o1 -16%
Cc1ccc(NC(=O)N2CCN(c3cc(-c4noc(C)n4)ccc3C)CC2)c(C)c1 -15.2%
Cc1cccc(CCNC(=O)CN(c2ccc(C(C)C)cc2)S(=O)(=O)c2c(C)nn(C)c2C)c1 -18.7%
CCCCC(=O)O[C@]1(C(=O)CO)[C@@H](C)C[C@H]2[C@@H]3CCC4=CC(=O)C=C[C@]4(C)[C@@]3(F)[C@@H](O)C[C@@]21C -15.9%
CO[C@]12C[C@@H](COC(=O)c3cncc(Br)c3)CN(C)[C@@H]1Cc1cn(C)c3cccc2c13 -12%
CCN(C(=O)Cn1cnc2onc(-c3ccc(F)cc3)c2c1=O)c1cc(C)ccc1C -19.5%
CCn1c(C(=O)NCc2cc(Br)ccc2OC)cc2oc3ccccc3c21 -8.4%
Cc1ccccc1OCC(=O)Nc1ccc2nc(SCc3ccccc3)sc2c1 -4.26%
CC(=O)c1ccc(NC(=O)c2nc(-c3ccc(C)cc3)n3c2CCCCC3)cc1 6.6%
Cc1ccc(OCC(=O)Nc2nc(-c3ccc(Br)cc3)ns2)cc1C -9.59%
COc1ccc(CNc2nc3ccccc3c3nc(-c4ccccc4)nn23)cc1 -5.18%
CCc1ccc(NS(=O)(=O)c2c(C)nc3sc(CC)nn3c2=O)cc1 -3.71%
Cc1ccc(C)c(CN2C(=O)C3(c4ccccc42)N(c2ccc(Cl)cc2)C(=O)CS3(=O)=O)c1 (centres undefined) -25.2%
COc1ccc(CCNC(=O)C2CCN(c3nc4ccccc4nc3C(F)(F)F)CC2)c(OC)c1 -25.2%
CC(=O)OCC(=O)[C@@]1(O)CC[C@H]2[C@@H]3CCC4=CC(=O)C=C[C@]4(C)[C@@]3(F)[C@@H](O)C[C@@]21C -6.03%
COc1ccc(-c2ccc(NS(=O)(=O)c3cccc(C)c3)cc2)nn1 -11.4%
COc1ccc(OCC(=O)NC2CC(=O)N(c3ccc4c(c3)OCCO4)C2)cc1 (centres undefined) -4.34%
CCOc1cccc(C2CC(=O)Nc3cc4c(cc32)OCCO4)c1 (centres undefined) -54.9%
CC(=O)N1c2ccccc2CC1C(=O)NCc1cccc(Cl)c1 (centres undefined) -3.32%
COc1ccc(-c2cc(C)no2)cc1S(=O)(=O)N1CCN(c2ccccc2F)CC1 9.65%
COc1ccc(CCNc2nc3c(-c4cccc(F)c4)nnn3c3ccccc23)cc1OC -19%
Cc1cccc(NC(=O)CSc2nc(-c3ccccc3Cl)nc3c2Cc2c(CO)cnc(C)c2O3)c1C -7.78%
CC1CCN(c2nc3c(S(=O)(=O)c4ccc(Cl)cc4)nnn3c3ccsc23)CC1 -13.7%
COc1cc(C(=O)N2CCOCC2)cc(OC)c1OC -14.2%
COc1cc2c(cc1OC)n(Cc1ccc([N+](=O)[O-])cc1)c(=O)n1nc(-c3ccccc3)nc21 -10.3%
COc1cc2c(cc1OC)C(COc1ccc3c(C)cc(=O)oc3c1)N(C(=O)c1ccccc1F)CC2 (centres undefined) 6.61%
Cc1ccccc1NC(=O)CSc1cn(CC(=O)N(C(C)C)C(C)C)c2ccccc12 -15.3%
